Data: PubChem BioAssay AID686970 (National Center for Advancing Translational Sciences (NCATS), 2013)
Among all 360,000 compounds or so, about 6,000 (1.7%) were called active. The shares of active, inactive and inconclusive entries below differ from those in the screen. Calls follow the shape of the dose curve; as a rule, active = well fitted cell-killing curve with a large enough effect; inconclusive = small, poorly fitted or top-dose-only effect, or effect the other way; inactive = flat fitted curve, though single readings scatter. No potency is given beside an inconclusive call; the fits are too rough.

Assay: qHTS for induction of synthetic lethality in tumor cells producing 2HG: qHTS for the HT-1080-NT fibrosarcoma cell line;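 also: NT is the 2HG producing partner of a matched IDH1 knockdown line; nearly all actives have a fitted effect of over 55% in size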;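 as to activity, negative = less viability: 0% = DMSO-treated cells and -100% = media-only wells without cells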
Conditions: HT-1080-NT fibrosarcoma viability, CellTiter-Glo ATP luminescence, 48 h; activity, negative = less viability: at 46.1 µM (top of the series) unless noted
Method in brief: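 HT-1080-NT fibrosarcoma cells (2HG-overproducing), 750 cells/well in RPMI with 5% FBS, dosed after 2 h and incubated 48 h at 37C. CellTiter-Glo luminescence normalized to DMSO and no-cell wells; concentration-response curves fitted and classed.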
Potency is read from the fitted curve at half-maximal effect; tags tell the direction and shape of the fitted curve.

SMILES | Potency | activity, negative = less viability
CCCCC(=O)Oc1c(S(=O)(=O)c2ccccc2)c(C)nn1C(C)(C)C | inconclusive [cytotoxic, single point] | 
CC(=O)Nc1ccc(NC(=O)c2ccc(N(C)S(=O)(=O)c3ccc(C)cc3)cc2)cc1 | inconclusive [cytotoxic, single point] | 
O=C1CC[C@@H](C(=O)N2CSC[C@@H]2C(=O)Nc2cccc(C(F)(F)F)c2)N1 | inactive | 
COc1ccc(-c2coc3c(C(=O)NCCc4ccccc4)cccc23)c(C)c1 | inconclusive [cytotoxic, single point] | 
O=C(COC(=O)Cc1ccsc1)Nc1ccc(Cl)c(S(=O)(=O)N2CCOCC2)c1 | inactive | 
Cc1ccc(N2C(=O)N(CC(=O)NC(N)=O)C(=O)C2C)cc1 (stereo not given) | inactive | 
c1coc(CN(Cc2ccco2)c2ncnc3c2oc2ccccc23)c1 | inconclusive [cytotoxic, single point] | 
COc1cccc(C(O)c2ncc(-c3ccc(Cl)cc3)[nH]2)c1 (stereo not given) | inconclusive [cytotoxic, single point] | 
O=C(CCl)NCc1cc(-c2ccc(Cl)cc2)no1 | active: 11.6 µM | 
CN(/N=C/c1cc(Br)cc(Br)c1O)c1cccc(C(F)(F)F)n1 | inconclusive [cytotoxic, single point] | 
COCCCNc1ccn2nc(-c3cccc(OCc4ccccc4)c3)cc2n1 | inconclusive [cytotoxic, single point] | 
O=S(=O)(c1cccc(F)c1)N1CCN(C(=S)NCc2ccccc2)CC1 | inactive | 
Cc1csc(NC(=O)CSc2nnc(-c3ccccc3)o2)n1 | inactive | 
CC(C)CC[n+]1ccn(C2=C([O-])c3ccccc3C(=O)/C2=N\S(=O)(=O)c2ccccc2)c1 | inconclusive [cytotoxic, single point] | 
Cc1cc(C)c2cc(C(=O)N3CCN(c4ncccc4C(F)(F)F)CC3)[nH]c2c1 | inconclusive [cytotoxic, single point] | 
CCc1nc(N2CCN(C(=O)CCl)CC2)c2c3c(sc2n1)CC(C)CC3 (stereo not given) | active: 20.6 µM | 
O=C(c1ccc(Cl)cc1)c1c[nH]c(C(=O)NNc2cccc(Cl)n2)c1 | active: 23.1 µM | 
CCN(CCNCC(O)COCc1ccc(Cl)cc1)c1cccc(C)c1 (stereo not given) | active: 16.4 µM | 
Cc1cc(=O)oc2cc(OCC3CC(c4ccccc4)=NO3)ccc12 (stereo not given) | active: 11.2 µM | 
CCN(CC)S(=O)(=O)c1cc(NC(=O)CNc2cccc(S(=O)(=O)N3CCOCC3)c2)ccc1C | active: 6.51 µM | 
COc1ccccc1CNCCS(=O)(=O)NCc1ccccc1 | inactive | 
Oc1ccccc1C=NN=C1c2ccccc2-c2ccccc21 | inconclusive [cytotoxic, single point] | 
Cc1ncoc1C(=O)N1CCCC(CCC(=O)NCc2ccccc2F)C1 (stereo not given) |  | inconclusive: -31.7% [cytotoxic]
Cc1ccc(NC(=O)C2(C)CCN2C(=O)Cc2ccc(C(C)C)cc2)cc1 (stereo not given) | inconclusive [cytotoxic, single point] | 

SMILES | Potency | activity, negative = less viability
CCCOC(c1ccccc1)(c1ccc(C(F)(F)F)cc1)C(Oc1nc(C)cc(C)n1)C(=O)O (stereo not given) | inconclusive [cytotoxic, partial curve] | 
COc1cc(/C=C/C(=O)OCc2cn3cc(Cl)ccc3n2)ccc1O | inconclusive [cytotoxic, single point] | 
CCCOc1ccc(C(=O)Nc2cccnc2)cc1 | inconclusive [cytotoxic, single point] | 
O=c1c2cc(N3CCOCC3)ccc2[nH]c(=S)n1Cc1ccco1 | inconclusive [cytotoxic, single point] | 
OC(CN1CCCCC1)Cn1c2ccccc2c2cc(Br)ccc21 (stereo not given) | active: 23.1 µM | 
O=C(CC1S/C(=N/N=C/c2c[nH]c3ccccc23)NC1=O)Nc1ccccc1 (stereo not given) | inconclusive [cytotoxic, partial curve] | 
CC(C)C(=O)NNc1ccccc1 | inconclusive [cytotoxic, partial curve, poor fit] | 
CC(C)CC1C(=O)N(Cc2cn(CC3CCCCC3)nn2)CCS(=O)(=O)N1Cc1ccc(-c2cccc(CO)c2)cc1 (stereo not given) | inconclusive [cytotoxic, single point] | 
CCNC(=O)C1(C)CCCN(C(=O)c2oc3ccccc3c2C)C1 (stereo not given) | inconclusive [rising, single point] | 
N#CCCN(C(=S)NC(=O)c1cccs1)c1ccccc1F | inactive | 
CCN(CC)C(=O)[C@H]1C[C@H](CC(=O)NCc2cccc(C(F)(F)F)c2)C(=O)N2CCc3c([nH]c4ccc(Cl)cc34)[C@]12C | inconclusive [cytotoxic, single point] | 
Cc1nn(Cc2c(Cl)cccc2Cl)c(C)c1NC(=O)c1cc(C(C)C)on1 | inconclusive [cytotoxic, single point] | 
CCCCCCCCN1C(=O)[C@H](CC(=O)NCCCCc2ccccc2)C[C@@]2(C(=O)OC)CCCCC=C12 | inconclusive [cytotoxic, single point] | 
COc1ccc(C(c2nnnn2-c2ccc(OC)cc2)N2CCN(C/C=C/c3ccccc3)CC2)cc1 (stereo not given) | inconclusive [cytotoxic, single point] | 
CCOC(=O)c1nn(C)c(=S)n(C)c1=O | inactive | 
Cc1nn(-c2ccccc2)c2sc(C(=O)NNC(=O)COc3ccccc3)cc12 | inconclusive [cytotoxic, full curve] | 
CSCCC1NC(=O)C(C(C)=Nc2ccccc2)=C1O (stereo not given) | inconclusive [rising, full curve, poor fit] | 
O=C(N/N=C/c1ccco1)c1cc(-c2ccncc2)nc2ccccc12 | inconclusive [cytotoxic, single point] | 
COc1ccc(NC(=O)N2CCC(c3ccccc3)C2)c(OC)c1 (stereo not given) | inconclusive [rising, partial curve] | 
CC1=C(C(=O)N2CCCCCC2)CC(CC(=O)NC(c2ccccc2)c2ccccc2)C(=O)N1CCC1=CCCCC1 (stereo not given) | inconclusive [cytotoxic, single point] | 
CCCCCCCCC[n+]1cccc2c3ccccc3ccc21 | active: 7.31 µM | 
Cn1ncc(Cl)c1C(=O)N/N=C/c1cc2c(cc1[N+](=O)[O-])OCO2 | inactive | 
CCn1cc(S(=O)(=O)Nc2cc(C)ccc2F)cn1 | inactive | 
O=C(/C=C/c1ccccc1Cl)Nc1ccccc1 | inactive | 

SMILES | Potency | activity, negative = less viability
CCCOC(=O)/C(=C\C=C\c1ccco1)NC(=O)c1ccccc1 | inactive | 
COc1ccc(NC(=O)COC(=O)CNC(=O)C2CCCCC2)cc1OC | inactive | 
CCC(C)n1c(=O)c(C(=O)Nc2ccccc2S(N)(=O)=O)c(O)c2ccccc21 (stereo not given) | inconclusive [cytotoxic, single point] | 
Cc1ccc(OCC(=O)N/N=C/C=C/c2ccco2)cc1C | inactive | 
Cc1ccc(C(C(=O)NCc2ccc(F)cc2)N(Cc2ccco2)C(=O)c2snc(C(N)=O)c2N)o1 (stereo not given) | inconclusive [cytotoxic, partial curve] | 
Cc1cc(C(=O)N/N=C\c2cc(C(C)(C)C)ccc2O)n[nH]1 | inconclusive [cytotoxic, full curve] | 
CSc1ncnc2c1ncn2CCCNCCCc1ccccc1 | inactive | 
COc1ccc(Cl)cc1NC(=O)C/C(C)=N/NC(=O)C(=O)NCc1ccccc1 | inconclusive [cytotoxic, partial curve] | 
CCC1=C(c2ccc(C)cc2)S(=O)(=O)N=C1N1CCC(C(=O)NCCCN2CCCCC2C)CC1 (stereo not given) | inactive | 
Cc1ccc(NC(=O)CCN2CCC(Cc3ccccc3)CC2)cc1 | inconclusive [cytotoxic, single point] | 
COc1ccc(C(C(=O)NC2CCCC2)n2c(Cc3cc(F)cc(F)c3)nc3ccccc32)cc1 (stereo not given) | inconclusive [cytotoxic, single point] | 
CC(C)N1C(=O)CC(Nc2cccc3cccc(N)c23)C1=O (stereo not given) | inactive | 
CCc1nc(C)cn1S(=O)(=O)c1cc(C)c(OC)c(C)c1C | inconclusive [cytotoxic, single point] | 
NC(Cc1ccccc1)c1csc(NC(=O)c2cccc(OC(F)(F)F)c2)n1 (stereo not given) | active: 14.6 µM | 
COc1ccc(-c2sc3cc(OC)c(OC)cc3c2C#CC(C)(C)O)cc1 | inconclusive [cytotoxic, partial curve, poor fit] | 
COc1cccc(NC(=O)CSC2=C(C#N)C(c3ccco3)C3=C(CCCC3=O)N2)c1 (stereo not given) | active: 9.2 µM | 
O=[N+]([O-])c1cccc(NC(=S)Nc2nc(-c3ccccc3Cl)cs2)c1 | inconclusive [cytotoxic, single point] | 
Cc1ccc(CNC(=O)COC(=O)c2cc3c(s2)CCC(C)C3)cc1 (stereo not given) | inconclusive [cytotoxic, single point] | 
Cn1c(=O)[nH]c(=O)c2c1nc(NCCN)n2CCOc1ccccc1 | inactive | 
Cc1cccc(CNc2ccc(C(CC(N)=O)NC(=O)Cc3cccc4ccccc34)cc2[N+](=O)[O-])c1 (stereo not given) | inconclusive [cytotoxic, partial curve] | 
O=C(COC(=O)c1ccc(S(=O)(=O)N2CCOCC2)cc1)Nc1ccccc1OC(F)F | inactive | 
COc1ccc(Cc2[nH]n3c(=O)cc(C(C)C)nc3c2-c2ccccc2)cc1 | inconclusive [cytotoxic, full curve, poor fit] | 
